Reference: the supplement of paper PMC8813932
Where a name gives a salt, the structure may show the parent alone. This is one part of the list. Repeats are few or missing, and single values can be far off.

Test system: Ov4Cis
Experiment: log2 surviving fraction relative to plate median (drug vs vehicle, or drug+dl922-947 vs dl922-947 alone); ovarian cancer lines: OVCAR4 is platinum-sensitive while Ov4Cis resists cisplatin and Ov4Carbo carboplatin; higher = more cell survival
Details: dl922-947 oncolytic adenovirus co-treatment: none; compound concentration: 10 uM; 192 h

Structure (SMILES)	log2 surviving fraction
C[C@@H](c1ncncc1F)[C@](O)(Cn1cncn1)c1ccc(F)cc1F [Voriconazole]	0.313
C=CCOc1ccccc1OCC(O)CNC(C)C (stereo not given) [Oxprenolol HCl]	-0.353
NC(=O)N1c2ccccc2C=Cc2ccccc21 [Carbamazepine (Carbatrol)]	0.251
CN1C2=CC(=O)/C(=N\NC(N)=O)C=C2CC1S(=O)(=O)O (stereo not given) [Carbazochrome sodium sulfonate]	0.355
COc1ccccc1OCC(O)CO (stereo not given) [Guaifenesin (Guaiphenesin)]	-0.51
Cc1ccc(C(=O)Nc2ccc(CN3CCN(C)CC3)c(C(F)(F)F)c2)cc1C#Cc1cnc2cccnn12	-14.5
COc1ccc(C(=O)N2CCCC2=O)cc1 [Aniracetam]	0.578
C[C@H](Cn1cnc2c(N)ncnc21)OCP(=O)(O)O [Tenofovir (Viread)]	-0.274
CN(C)CCCN1c2ccccc2CCc2ccc(Cl)cc21 [Clomipramine hydrochloride (Anafranil)]	-2.14
Nc1ccc(S(=O)(=O)Nc2ccccn2)cc1 [Sulfapyridine (Dagenan)]	-0.0422
Oc1c(Cl)cc(Cl)c2cccnc12 [Chloroxine]	-1.52
CC1(C)S[C@@H]2[C@H](NC(=O)C(C(=O)O)c3ccccc3)C(=O)N2[C@H]1C(=O)O (stereo not given in full) [Carbenicillin disodium]	0.212
CCC(C)n1ncn(-c2ccc(N3CCN(c4ccc(OCC5COC(Cn6cncn6)(c6ccc(Cl)cc6Cl)O5)cc4)CC3)cc2)c1=O (stereo not given) [Itraconazole (Sporanox)]	0.359
Oc1ccc(OCc2ccccc2)cc1 [Monobenzone (Benoquin)]	-2.93
C[N+](C)(C)CCO.[Cl-] [Choline Chloride]	0.483
CN1CCC(=C2c3ccccc3CCc3sccc32)CC1 [Pizotifen malate]	-1.55
CO[C@H]1/C=C/O[C@@]2(C)Oc3c(C)c(O)c4c(c3C2=O)C2=NC3(CCN(CC(C)C)CC3)NC2=C(NC(=O)/C(C)=C\C=C\[C@H](C)[C@H](O)[C@@H](C)[C@@H](O)[C@@H](C)[C@H](OC(C)=O)[C@@H]1C)C4=O [Rifabutin (Mycobutin)]	-2.09
C#C[C@]1(O)CC[C@H]2[C@@H]3CCc4cc(O)ccc4[C@H]3CC[C@@]21C [Ethinyl Estradiol]	-2.82

Structure (SMILES)	log2 surviving fraction
C[C@@H](O[C@H]1OCCN(Cc2n[nH]c(=O)[nH]2)[C@H]1c1ccc(F)cc1)c1cc(C(F)(F)F)cc(C(F)(F)F)c1 [Aprepitant (MK-0869)]	-1.52
Cc1cc(C2CCCCC2)n(O)c(=O)c1 [Ciclopirox ethanolamine]	-12.5
NC(=O)c1ncn([C@@H]2O[C@H](CO)[C@@H](O)[C@H]2O)c1N [Acadesine]	0.672
O=C(O)CCc1nc2ccccc2[nH]1 [Procodazole]	0.0389
Cc1ccnc(NS(=O)(=O)c2ccc(N)cc2)n1 [Sulfamerazine]	0.41
O=C1O[C@H]([C@@H](O)CO)C([O-])=C1O.[Na+] [Sodium ascorbate]	1.26
CN1[C@@H]2CC[C@H]1C[C@@H](OC(=O)C(CO)c1ccccc1)C2 (stereo not given in full) [Atropine]	-4.19
Cc1cnc(C(=O)O)c[n+]1[O-] [Acipimox]	0.313
Cn1c(=O)c2[nH]cnc2n(C)c1=O [Aminophylline (Truphylline)]	0.0605
C[N+](C)(CCOc1ccccc1)Cc1ccccc1.O=C([O-])c1cc2ccccc2cc1O [Bephenium Hydroxynaphthoate]	0.748
Nc1nnc(-c2cccc(Cl)c2Cl)c(N)n1 [Lamotrigine]	-0.832
CC(C)NCC(O)c1ccccc1Cl (stereo not given) [Clorprenaline HCL]	0.728
O=C(O)c1ccc(-n2nc(-c3ccccc3O)nc2-c2ccccc2O)cc1 [Deferasirox (Exjade)]	-3.69
CN(N=O)C(=O)N[C@@H](C=O)[C@@H](O)[C@H](O)[C@H](O)CO [Streptozotocin (Zanosar)]	0.383
O=C1CC[C@@]2(O)[C@H]3Cc4ccc(O)c5c4[C@@]2(CCN3CC2CC2)[C@H]1O5 [Naltrexone HCl]	0.0711
CCCN1CCCC[C@H]1C(=O)Nc1c(C)cccc1C [Ropivacaine HCl]	-1.98
C[C@]12CC[C@H](O)CC1=CC[C@@H]1[C@@H]2CC[C@]2(C)C(c3cccnc3)=CC[C@@H]12 [Abiraterone (CB-7598)]	0.601
